From the RNAGym collection of RNA variant scans (doi:10.1073/pnas.2313332121)
This sample is rich in variants without activity.

B1: TPR 5TU (parent)
chain: GGAUCUUCUCGAUCUAACAAAAAAGACAAAUCUGCCACAAAGCUUGAGAGCAUCUUCGGAUGCAGAGGCGGCAGCCUUCGGUGGCGCGAUAGCGCCAACGUUCUCAACUAUGACACGCAAAACGCGUGCUCCGUUGAAUGGAGUUUAUCAUG

Variants of: B1
Assay: polymerase ribozyme fitness, log enrichment relative to wild type (log ratio); higher = more active; in vitro selection for triplet polymerase activity
Summary of the method: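 Each subunit of a heterodimeric triplet polymerase ribozyme was represented by a PCR-built, transcribed mutant library that underwent triplicate single-round in vitro selection with frozen incubation at −7 °C. Extended constructs were recovered by gel excision, streptavidin-bead capture and RT-PCR, and Illumina sequencing of input and output libraries kept genotypes with ≥10 input reads and ≥1 read per output. Fitness is the logarithm of genotype enrichment relative to wild-type enrichment, from inverse-variance-weighted replicate averages, with a logarithm base of 2.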

Polymerase ribozyme fitness (log ratio), ≤ -4.2:
GGAUCUUCUCGAGCUAAGAAAAAAGACAAAUCUGCCACAAAGCUUGAGAGCAUUUUCGCAUGCAGAGGCGGCAGCCUUCGGUGGCGCGAUAGCGCCAAUGUGCUCAACUAUGACACGCAAAACGCGUGCUCCGUUGAAUGGAGUUUAUCAUG [U13G C18G C54U G59C C99U U102G]
GGAUCUUCUCGAGCUAACAAAAAAGACAAAUCUGCCACAAAGCUUGAGAGCAUCUUCGGAUGCACAGGCGGCAGCCUUCGGUAGCGCGAUAGCGCCAACGUUCUCAACUAUGACACGCAAAACGCGUGCUCCGUUGAAUGGAGUUUAUCAUG [U13G G65C G83A]
GGAUCUUCUCGAGCUAACAAAAAAGAGAAAUCUGCCACAAACCUUGAGAGCAUCUUCGGAUGCAGAGGCGGCAGCCUUCGGUGGCGCGAUAGCGACAACGUUCUCAACUUUGACACGCAAAACGCGUGCUCCGUUGAAUGGAGUUUAUCUUU [U13G C27G G42C C95A A110U A150U G152U]
GGAUCUUCUCGAGGUAACAAAAAAGACAAAUCUGCCACAAAGCUUGAGAGCACCAUCGGAUGCAGAGGCGGCAGCCUUCGGUGGCGCGAUAGCGCUAACGUUCUCAACUAUGAUACGCAAAACGCGUGCUCCGUUGAAUGGAGUUUAUCAUU [U13G C14G U53C U55A C96U C114U G152U]
GGAUCUUCUCGAGCUAACAAAAAAGAUAAAUCUGCCACAAAGCUUGAGAGCAUCUUCGGAUGCAGAGGCGGCAGCCUUCGGUUGCGCGAUAGCGCCAACGUUCUCAACUAUGACACGCAAAACGCGUGCUCGGUUGAAUGGAGUUUAUCAUG [U13G C27U G83U C132G]
GGAUCUUCUCGAGCUAACAAAAAAGACGAAUCUGCCACAAAGCUUGAGAGCAACUUCGGAUGCUGAGGCGGCAGCCUUCGGUGGCGCGAUAGCGCCAACGUUCUCAACUAUGACACGCAAAACGCGUGCUCCGUUGAAUGUAGUGUAUCAUA [U13G A28G U53A A64U G141U U145G G152A]
GGAUCUUCUCGAGCUAACAAAAAAUACCAAUCUGCCACAAAGCUUGAGAGCAUCUUCGGAUGCAGAGGCGGCAGCCUUCGGUGGGGCGAUAGCGCCAACGUUCUCAACUAUGACACGCAAAACGCGUGCUCCGUUGAAUGAAGUUUAUCAUG [U13G G25U A28C C85G G141A]
GGAUCUUCUCGAGCUAACAAAAAAGACAAAUCUGCCACAAAGCUUGAGAGCAUGUUCGGAUGCAGAGGCGGCAGCCUUCGGUGGCGCGAUAGCGUCAACGUUCGCAACUAUGACACGCAAAACGCGUGCGCCGUUGAAAGGAGUUUAUCAUG [U13G C54G C95U U104G U130G U139A]
GGAUCUUCUCGAGCUAACAAAAAAGACAAAUCUGCCACAAAGCUUGAGAGCAUCUUCGGAUGCAGAGGCGGCAGUCUUCGGUGGCGCGAUAGCGUCCACGUUCUCAACUAUAGCACGCAAAACGCGUGCUCCGUUGAAUGGAGUUUAUCAUG [U13G C75U C95U A97C G112A A113G]
GGAUCUUCUCGAGCUAACAAAAAAGACAAUUCUGCCACAAAGCUUGAGAGCAACUUCGGCUGCAGAGGCGGCAGCGUUCGGUGGCGCGAUAGCGGCAAUGUUCUCAACUAUGACACGCAAAACGCGUGCUCCGUUGAAUGAAGUUUAUCAUG [U13G A30U U53A A60C C76G C95G C99U G141A]
GGAUCUUCUCGAGCUAACAAAAAAGACAAAUCUGCCACAAAGUUUGAGAGCAUCUUCGGAUGCAGAGGCGGCAGCCUUCGGUGGCGCGAUAGCGCCAACGUUCUCAACUAUGACACGCAAAACGCGUGCUCCGUUUAAUGGAGUUUAUCAUG [U13G C43U G136U]
GGAUCUUCUCGAGCUAACAAAAAAGACAAAUCUGCCACAAAGCUUGAGAGCAUCUUCGGAUGCAGAGGCGGCAGCCUUCGGUGGUGCGAUAGCGCCAAUGUUCUCAACUAUGACACGCAAAACGCGUCCUCUGUUGAAUGGAGUUUAUCAUG [U13G C85U C99U G128C C132U]
GGAUCUUCUCGAGCUAACAAAAAAGACAAAUCUGCCACAGAGCUUGAGAGCAUCUUCGGAUGCAGAGGCGGCAGCCUUCGGUGGCGCAAUAGCGCCAACGUUAUCAACUAUGACACGCAAAAGGCGUGCUCCGUUGACUGGAGUUUAUCAUG [U13G A40G G88A C103A C123G A138C]
GGAUCUUCUCGAGCUAACAAAAAAGACAAAUCAGCCACAAAGCUUGAGAGCAUCUUCGGAUGCAGAGGCGGCAGCCUUCGGUGGCGCGAUAGCGCCAAUGUUCUCAACUAUGACACGGAUAACGCGUGCUCCGCUGAAUGGAGUUUAUCAUG [U13G U33A C99U C118G A120U U134C]
GGAUCUUCUCGAGCUAACAAAAAAGACAAAUCUGCCACAAAGCUUGAGAGCAUCUUCCGGUGCAGAGGCGGCAGCCUUCGGUGGCGCCAUAGCGCCAACGUUCUCAGCUAUGACACGCAAAACGCGUGCUCCGUUGAAUGGAAUUUAUCAUG [U13G G58C A60G G88C A107G G143A]
GGAUCUUCUCGAGCUAACAAAAAAGACUAAUCUGCCCCAAGGCUUGAGAGCAUCUUCGGAUGCAGAGGCGGCUGCCUUCGGUGGCCCGAUAGCGCCAACGUUCUCAACUAUGACACGCAAAACGCGUGCUCCGUUCAAUGGAGUUUAUCAUG [U13G A28U A37C A41G A73U G86C G136C]
GGAUCUUCUCGAGCUAACAAAAAAGACAAAUCUGCCACAAGGCUUGAGAGCAUGUUCGGAUGCAGAGGCGGCAGCCUUCGAUGGCGCGAUAGCGCGAACGUUCUCAACUAUGACACGUAAAACGCGUGCUCCGUUGAAUGGAGUUUAUCAUG [U13G A41G C54G G81A C96G C118U]
GGAUCUUCUCGAGCUAACAAAAAAGACAUAUCUGCCACAAAGCUUGAGAGCUUCUUCGGAUGCAGAGGCGGCAGCCUUCGGUGGCGGGGUAGCGCCAACGUUCUCAACUAUGACACGCAAAACGCGUGCUCCGUUGAAUGGAGUUUAUGAUG [U13G A29U A52U C87G A89G C149G]
GGAUCUUCUCGAGCUAACAAAAAACACAACUCUGCCACAAAGCUUGAGAGCAUCUUCGGAUGCAGAGGCGGCAGCCUUCGGUGGCGGGAUAGCGCCAACGCUCUCAACUAUGUCACGCAAAACGCGUGCUCCGUUGAAUGGAGUUUGUCAUG [U13G G25C A30C C87G U101C A113U A147G]
